According to US11634486B2, “Anti-SEZ6L2 antibodies and antibody drug conjugates” (Bluefin BioMedicine, Inc., priority 2016, dated 2023):

Tests used:
Test in all cases: Flow cytometry specificity on overexpressing 293 cells
Format in all cases: binding
Conditions in all cases: primary antibody 1 ug/ml, live cells on ice
SEZ6L2 (293-SEZ6L2) = target: T1, SEZ6L2 (293-SEZ6L2) (Homo sapiens, UniProt Q6UXD5)
T1 construct: cDNA encoding the complete mature human SEZ6L2 protein containing a C-terminal FLAG tag was purchased from Origene; FLAG (C); host or cells: HEK 293
T1 sequence (Q6UXD5 28-910): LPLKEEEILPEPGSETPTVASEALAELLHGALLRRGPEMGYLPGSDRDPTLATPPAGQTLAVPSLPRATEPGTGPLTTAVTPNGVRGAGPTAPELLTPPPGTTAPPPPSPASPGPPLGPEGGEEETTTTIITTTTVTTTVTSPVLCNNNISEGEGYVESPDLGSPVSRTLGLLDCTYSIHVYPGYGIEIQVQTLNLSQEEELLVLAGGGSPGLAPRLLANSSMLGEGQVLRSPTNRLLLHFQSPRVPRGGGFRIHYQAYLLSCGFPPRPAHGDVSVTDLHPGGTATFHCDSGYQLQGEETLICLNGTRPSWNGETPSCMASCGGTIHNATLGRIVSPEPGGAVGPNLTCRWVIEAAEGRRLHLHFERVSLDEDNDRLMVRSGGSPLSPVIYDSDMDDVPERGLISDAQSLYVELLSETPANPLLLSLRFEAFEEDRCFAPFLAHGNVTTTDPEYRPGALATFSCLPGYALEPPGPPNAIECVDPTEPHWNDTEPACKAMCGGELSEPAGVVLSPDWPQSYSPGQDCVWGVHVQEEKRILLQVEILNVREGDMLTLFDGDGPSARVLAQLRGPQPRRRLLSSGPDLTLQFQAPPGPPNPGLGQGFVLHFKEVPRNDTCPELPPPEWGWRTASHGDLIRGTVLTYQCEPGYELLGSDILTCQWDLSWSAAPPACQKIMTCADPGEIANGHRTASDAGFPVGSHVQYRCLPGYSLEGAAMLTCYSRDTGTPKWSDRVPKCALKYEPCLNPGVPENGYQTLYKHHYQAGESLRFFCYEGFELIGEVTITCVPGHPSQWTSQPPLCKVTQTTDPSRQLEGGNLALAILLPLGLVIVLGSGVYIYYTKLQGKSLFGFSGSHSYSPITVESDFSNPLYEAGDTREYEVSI
Experimental: (§1) In order to assess whether SEZ6L2 antibody modulators immunospecifically associate with human SEZ6L2, and to determine whether the same modulators cross-react with SEZ6 and SEZ6L, flow cytometry was performed using a MACSquant™ as per the manufacturer's instructions. More particularly, modulators were tested for cross reactivity to cell lines that overexpress the human homologs of SEZ6 (293-SEZ6), SEZ6L (293-SEZ6L), and SEZ6L2 (293-SEZ6L2).
(§2) Briefly, staining for flow cytometry was performed in lx cold PBS with 0.5% BSA. Primary antibodies (1 ug/ml) were incubated with live cells on ice for one hour. After washing in the same buffer, cells were incubated with Alexa Fluro® 488-conjugated anti-human IgG secondary antibody @1:1000 (709-546-149, Jackson ImmunoResearch) on ice in the dark. After a 30 minute incubation, cells were washed in the same buffer and re-suspended in buffer plus propidium iodide (PI) to identify live cells. As a negative control, cells were incubated with secondary antibody alone. Acquisition of the data was performed on a MACSQuant® Flow Cytometer (Miltenyi Biotec) and analyzed with FlowJo software.

SEZ6 (293-SEZ6) = target: T2, SEZ6 (293-SEZ6) (Homo sapiens, UniProt Q53EL9)
T2 construct: expressed in transfected cells; host or cells: HEK 293
T2 sequence (Q53EL9 20-994): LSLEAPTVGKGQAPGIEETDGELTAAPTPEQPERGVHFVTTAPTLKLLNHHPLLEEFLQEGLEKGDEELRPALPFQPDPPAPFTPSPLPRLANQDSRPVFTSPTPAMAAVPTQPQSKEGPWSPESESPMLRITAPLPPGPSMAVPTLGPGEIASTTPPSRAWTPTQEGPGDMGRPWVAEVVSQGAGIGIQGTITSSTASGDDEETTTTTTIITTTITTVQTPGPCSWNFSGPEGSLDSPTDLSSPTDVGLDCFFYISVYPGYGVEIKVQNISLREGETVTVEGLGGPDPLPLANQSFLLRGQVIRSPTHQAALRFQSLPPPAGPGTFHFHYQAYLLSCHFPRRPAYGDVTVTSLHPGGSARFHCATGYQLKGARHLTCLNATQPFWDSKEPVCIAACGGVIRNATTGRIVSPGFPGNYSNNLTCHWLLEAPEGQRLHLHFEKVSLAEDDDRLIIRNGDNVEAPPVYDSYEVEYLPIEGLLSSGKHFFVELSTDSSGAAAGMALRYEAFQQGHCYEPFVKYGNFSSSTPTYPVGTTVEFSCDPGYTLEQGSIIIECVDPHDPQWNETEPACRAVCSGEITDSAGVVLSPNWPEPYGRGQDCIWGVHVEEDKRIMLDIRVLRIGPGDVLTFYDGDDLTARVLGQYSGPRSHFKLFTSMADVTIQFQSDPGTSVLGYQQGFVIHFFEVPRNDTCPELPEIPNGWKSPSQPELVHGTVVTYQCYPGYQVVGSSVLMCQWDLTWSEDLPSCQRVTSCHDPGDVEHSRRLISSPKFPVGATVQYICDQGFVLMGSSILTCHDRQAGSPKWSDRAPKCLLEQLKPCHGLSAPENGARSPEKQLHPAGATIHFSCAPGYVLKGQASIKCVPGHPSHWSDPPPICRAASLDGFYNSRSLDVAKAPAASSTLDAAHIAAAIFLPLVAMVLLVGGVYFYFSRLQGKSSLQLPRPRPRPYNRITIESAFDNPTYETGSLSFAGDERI
Experimental: as §1, §2

SEZ6L (293-SEZ6L) = target: T3, SEZ6L (293-SEZ6L) (Homo sapiens, UniProt Q9BYH1)
T3 construct: expressed in transfected cells; host or cells: HEK 293
T3 sequence (Q9BYH1 29-1024): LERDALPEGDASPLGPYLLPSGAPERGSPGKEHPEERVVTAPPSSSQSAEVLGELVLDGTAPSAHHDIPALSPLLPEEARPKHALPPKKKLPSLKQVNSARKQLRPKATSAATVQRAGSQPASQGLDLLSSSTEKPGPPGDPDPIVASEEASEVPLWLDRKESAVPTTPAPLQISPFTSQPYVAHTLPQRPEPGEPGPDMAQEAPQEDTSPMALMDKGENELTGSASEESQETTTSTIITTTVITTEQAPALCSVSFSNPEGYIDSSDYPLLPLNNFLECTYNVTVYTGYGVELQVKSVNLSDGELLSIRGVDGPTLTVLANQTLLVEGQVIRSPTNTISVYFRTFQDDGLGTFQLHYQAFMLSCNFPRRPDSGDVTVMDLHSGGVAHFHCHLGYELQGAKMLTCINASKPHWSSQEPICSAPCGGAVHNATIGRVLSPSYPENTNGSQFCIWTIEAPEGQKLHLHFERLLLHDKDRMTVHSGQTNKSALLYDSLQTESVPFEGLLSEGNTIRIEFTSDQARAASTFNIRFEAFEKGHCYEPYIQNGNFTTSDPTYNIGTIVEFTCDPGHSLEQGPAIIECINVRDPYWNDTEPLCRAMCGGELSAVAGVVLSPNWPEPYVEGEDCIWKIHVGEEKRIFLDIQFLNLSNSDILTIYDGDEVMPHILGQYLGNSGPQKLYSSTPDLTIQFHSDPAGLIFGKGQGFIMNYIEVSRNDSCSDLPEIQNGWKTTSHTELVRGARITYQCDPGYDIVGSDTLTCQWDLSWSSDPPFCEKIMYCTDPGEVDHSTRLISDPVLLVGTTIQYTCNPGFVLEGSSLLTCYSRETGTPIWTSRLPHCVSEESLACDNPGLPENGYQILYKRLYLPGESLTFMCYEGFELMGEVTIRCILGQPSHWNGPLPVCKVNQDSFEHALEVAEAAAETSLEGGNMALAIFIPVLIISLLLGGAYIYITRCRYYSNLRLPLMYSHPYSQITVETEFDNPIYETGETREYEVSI
Experimental: as §1, §2

binding to 293-SEZ6 cells by flow cytometry (SEZ6 (293-SEZ6)): no detectable binding
binding to 293-SEZ6L cells by flow cytometry (SEZ6L (293-SEZ6L)): no detectable binding
B1: 106: human anti-SEZ6L2 antibody, VH SEQ ID NO: 90, VL SEQ ID NO: 94 (antibody, V domains shown)
VH: QVQLQESGPGLVKPSETLSLTCTVSGGSISSYYWSWIRQPPGKGLEWIGYIYNSGSTNYNPSLKSRVTISVDTSKNQFSLKLSSVTAADTAVYYCARRGDQGYWYFDLWGRGTLVTVSS
VL: EIVMTQSPATLSVSPGERATLSCRASQSVSSNLAWYQQKPGQAPRLLIYGASTRATGIPARFSGSGSGTEFTLTISSLQSEDFAVYYCQQYNNWPPTFGQGTKVEIK
binding to 293-SEZ6L2 cells by flow cytometry (SEZ6L2 (293-SEZ6L2)): recognize a cell line that overexpresses SEZ6L2
